No constants are given. Whether binding was seen depends on the method and setting. Binding seen in cells or lysates may run through a third protein. Some entries that bind do so weakly or less than the wild type. For some of these results: Where a sequence is shown, tags or fusion partners need not be part of it.

Chains of the proteins cited; added tags and fusions are not shown. Lines headed by an entry give the natural chain unless they say otherwise; changes in a name come on top.
UniProt Q12798: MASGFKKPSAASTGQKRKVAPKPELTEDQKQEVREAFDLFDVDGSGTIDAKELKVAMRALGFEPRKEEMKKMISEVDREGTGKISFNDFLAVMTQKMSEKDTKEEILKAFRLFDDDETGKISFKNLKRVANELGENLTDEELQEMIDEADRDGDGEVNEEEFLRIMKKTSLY
UniProt O75838: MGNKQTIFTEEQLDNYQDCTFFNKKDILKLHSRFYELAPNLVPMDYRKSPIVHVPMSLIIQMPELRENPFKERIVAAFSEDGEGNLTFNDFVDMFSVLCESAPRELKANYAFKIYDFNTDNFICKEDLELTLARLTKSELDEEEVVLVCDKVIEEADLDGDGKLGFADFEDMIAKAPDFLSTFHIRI

For experiment [1], the target named is T1, FLAG-myc-tagged CCT3 (human (from the printed UniProt entry)) (UniProt P49368).
T1 sequence: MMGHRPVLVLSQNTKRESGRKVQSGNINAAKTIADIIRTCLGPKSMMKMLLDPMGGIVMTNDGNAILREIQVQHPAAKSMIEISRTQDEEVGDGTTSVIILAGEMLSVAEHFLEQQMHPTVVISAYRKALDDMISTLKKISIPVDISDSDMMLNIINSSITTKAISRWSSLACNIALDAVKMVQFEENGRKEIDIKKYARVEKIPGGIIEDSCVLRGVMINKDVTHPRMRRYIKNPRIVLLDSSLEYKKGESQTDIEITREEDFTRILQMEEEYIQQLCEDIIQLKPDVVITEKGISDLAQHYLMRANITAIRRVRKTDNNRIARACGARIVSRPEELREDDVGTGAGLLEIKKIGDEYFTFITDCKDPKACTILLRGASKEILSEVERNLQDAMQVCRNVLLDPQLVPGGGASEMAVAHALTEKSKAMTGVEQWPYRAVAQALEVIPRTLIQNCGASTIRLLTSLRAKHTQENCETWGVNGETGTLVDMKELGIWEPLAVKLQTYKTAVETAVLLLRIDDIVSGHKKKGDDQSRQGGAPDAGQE
Put plainly: co-IP; anti-FLAG M2 beads hold FLAG-myc-CCT3; lysates of co-expressing HEK293T cells in TAP lysis buffer; 1 h at 4°C; Western blot with antibodies against FLAG and HA. (In general: Immunoblotting shows a protein as a band on a membrane.)

The target of a further experiment is RFP-tagged centrin 1 (UniProt Q12798). Put plainly: co-IP; RFP-Trap agarose beads; lysates of co-transfected HEK293T cells (RFP-tagged protein or RFP alone with HA- or SF-tagged protein); 10 mM Tris-Cl pH 7.5, 150 mM NaCl, 0.5 mM EDTA; 2 h at 4°C; Western blot.
Experiment [2] deals with T2, 3xHA-tagged C-terminal fragment of ADGRV1 (3xHA-ADGRV1_CTF) (human) (UniProt Q8WXG9).
T2 sequence: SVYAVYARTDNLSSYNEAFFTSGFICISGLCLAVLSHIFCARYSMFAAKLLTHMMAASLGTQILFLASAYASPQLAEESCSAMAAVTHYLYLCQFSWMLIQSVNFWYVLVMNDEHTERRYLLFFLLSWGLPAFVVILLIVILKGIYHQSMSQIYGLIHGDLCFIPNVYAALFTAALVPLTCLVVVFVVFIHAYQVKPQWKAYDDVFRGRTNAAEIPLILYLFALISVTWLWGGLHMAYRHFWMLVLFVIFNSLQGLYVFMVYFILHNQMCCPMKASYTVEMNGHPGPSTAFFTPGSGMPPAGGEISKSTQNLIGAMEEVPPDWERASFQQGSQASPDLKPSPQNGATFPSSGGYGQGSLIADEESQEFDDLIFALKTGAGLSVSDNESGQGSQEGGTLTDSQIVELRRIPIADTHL
Nature of the experiment: co-IP; reciprocal: anti-HA agarose beads hold the 3xHA-tagged protein; lysates of co-expressing HEK293T cells; Western blot.

Turning to “3xHA-tagged centrin 1 (from UniProt Q12798 1-172)”, the binding result in experiment [1] was “no binding”.

For “Strep II-FLAG (SF)-tagged CIB2 isoform 1 (from UniProt O75838-1 1-187)”, in the experiment with RFP-tagged centrin 1, the binding result is given as “no binding”.

For “Strep-II-FLAG (SF)-tagged ADGRV1a (from UniProt Q8WXG9-1 4340-6306) (receptor)”, the binding entry in the experiment with RFP-tagged centrin 1 is reported as “no binding”. Take “RFP-tagged CIB2 (mRFP-CIB2) (from UniProt O75838 1-187)”: the binding result in experiment [2] was “binds”.

Values taken from publication PMC10323441.
